The whole screen tested about 39,000 compounds, of which about 220 (0.56%) showed activity. The list shows a part of the results.
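Further: static incubation at 37 °C against the wild-type strain, values averaged over two biological replicates.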

This test has as its system Escherichia coli K-12 BW25113. Briefly: relative growth (OD600 normalised to plate interquartile mean) (fraction); higher = less growth inhibition, active = 0.2 or less. The settings on record: 50 µM; LB; incubation time: overnight (16-24 h).
Turning to `Cc1noc(C)c1NC(=O)Nc1cccc2c1O[C@@H](CN(C)Cc1ccc(C(=O)Nc3ccccc3N)cc1)[C@@H](C)CN([C@@H](C)CO)C2=O`, the relative growth was inactive: 0.998.

In the case of `COc1ccc(CCN2C(=O)[C@@]3(Cc4ccccc42)c2ccccc2C(=O)N(C2CCCCC2)[C@H]3c2ccc(CO)cc2)cc1`, the relative growth is inactive: 0.975.

As for `COc1ccc(S(=O)(=O)N(C)C[C@@H]2OCCCC[C@H](C)Oc3ccc(NC(=O)NC4CCCCC4)cc3C(=O)N([C@@H](C)CO)C[C@@H]2C)cc1`, the relative growth is inactive: 1.01.

For `C#CC1(OC(C)=O)CCC2C3CCC4=CC(=NO)CCC4C3CCC21CC` (centres undefined), the relative growth is inactive: 0.916.

For the compound `CCCCOC(=O)CCCCCCC(=O)OCCCC`, the relative growth was inactive: 0.919.

On to `CO[C@@H]1CN(C)C(=O)c2cc(NS(=O)(=O)c3cn(C)cn3)ccc2OC[C@@H](C)N(Cc2cccc(F)c2)C[C@H]1C`, for which the relative growth was inactive: 1.01.

As to `COc1ccc(S(=O)(=O)N(C)C[C@@H]2Oc3ccc(NS(=O)(=O)c4cccs4)cc3C(=O)N([C@@H](C)CO)C[C@H]2C)cc1`, the relative growth was inactive: 0.905.

On to `Cc1noc(C)c1NC(=O)Nc1ccc2c(c1)CC(=O)N([C@H](C)CO)C[C@@H](C)[C@@H](CN(C)S(=O)(=O)c1ccccc1)O2`, for which the relative growth is inactive: 0.993.

Regarding `CC(C)CC#Cc1ccc2c(c1)O[C@H](CN(C)C(=O)c1ccncc1)[C@@H](C)CN([C@@H](C)CO)S2(=O)=O`, the relative growth was inactive: 0.991.

For the compound `O=C(Cn1ccc([N+](=O)[O-])n1)n1cccn1`, the relative growth was inactive: 0.987.

Take `COc1ccc2c3c(n(c2c1)C)[C@@H](CO)N(C[C@]13CN(C1)C(=O)CN(C)C)C(=O)CN(C)C`: the relative growth is inactive: 1.02.

With `Cc1noc(C)c1NC(=O)N(C)C[C@@H]1OCCCC[C@@H](C)Oc2ccc(NS(=O)(=O)c3ccc(Cl)cc3)cc2C(=O)N([C@H](C)CO)C[C@@H]1C`, the relative growth is inactive: 0.999.

Take `C[C@@H]1CN([C@H](C)CO)C(=O)Cc2cc(NC(=O)Cn3cnnn3)ccc2O[C@@H]1CN(C)C(=O)NC1CCCCC1`: the relative growth was inactive: 1.01.

Turning to `C[C@@H]1CN([C@H](C)CO)C(=O)Cc2cc(NS(=O)(=O)c3ccc(F)cc3)ccc2O[C@H]1CN(C)Cc1ccncc1`, the relative growth was inactive: 1.

Turning to `COc1cc(-c2cc(=O)c3c(=O)cc(-c4ccc(O)c(OC)c4)n(CCc4ccccc4)c3s2)ccc1O`, the relative growth is inactive: 1.03.

With `C[C@@H]1CN([C@@H](C)CO)C(=O)c2cc(NC(=O)c3ccccc3)ccc2O[C@@H](C)CCCCO[C@@H]1CN(C)Cc1ccncc1`, the relative growth is inactive: 1.01.

For the compound `COC1CC(OC2C(C)=CCC3CC(CC4(CCC(C)C(C5CCCCC5)O4)O3)OC(=O)C3C=C(C)C(=NO)C4OCC(=CC=CC2C)C34O)OC(C)C1O` (centres undefined), the relative growth was inactive: 0.846.

With `CCC[C@@H](O)C#Cc1cnc2c(c1)C(=O)N([C@H](C)CO)C[C@H](C)[C@H](CN(C)S(=O)(=O)c1cn(C)cn1)O2`, the relative growth is inactive: 0.999.

Consider `Cc1ccc(S(=O)(=O)N(C)C[C@@H]2OCCCC[C@H](C)Oc3ccc(NC(=O)Nc4ccc(C(F)(F)F)cc4)cc3C(=O)N([C@H](C)CO)C[C@H]2C)cc1`, for which the relative growth is inactive: 1.03.

`O=c1[nH]c(=O)c2ccccc2o1`: the relative growth is inactive: 1.03.

With `COc1ccc(S(=O)(=O)Nc2ccc3c(c2)C(=O)N([C@@H](C)CO)C[C@@H](C)[C@@H](CN(C)C(=O)NC2CCCCC2)OCCCC[C@H](C)O3)cc1`, the relative growth is inactive: 0.999.

Regarding `c1ccc2c(-c3ccncc3)c[nH]c2c1`, the relative growth was inactive: 0.854.

As to `COc1cc(C=CC(=O)O)cc(OC)c1OC`, the relative growth was inactive: 1.07.

On to `C[C@@H]1CN([C@H](C)CO)S(=O)(=O)c2ccc(Br)cc2O[C@H]1CN(C)C(=O)c1ccc2c(c1)OCO2`, for which the relative growth is inactive: 1.

As for `C[C@H](CO)N1C[C@H](C)[C@@H](CN(C)Cc2ccc(Cl)c(Cl)c2)Oc2ccc(NS(=O)(=O)c3cccs3)cc2CC1=O`, the relative growth was inactive: 0.947.

Turning to `COc1ccc(CN(C)C[C@H]2OCCCC[C@@H](C)Oc3ccc(NS(=O)(=O)c4ccccc4)cc3C(=O)N([C@@H](C)CO)C[C@H]2C)cc1`, the relative growth was inactive: 1.03.

As to `COC(=O)CN[C@H]1CCS(=O)(=O)C1`, the relative growth was inactive: 0.995.

In the case of `COc1ccc(S(=O)(=O)Nc2ccc3c(c2)CC(=O)N([C@@H](C)CO)C[C@@H](C)[C@@H](CN(C)Cc2ccc(C(=O)O)cc2)O3)cc1`, the relative growth was inactive: 1.01.

As for `COc1ccc(CN(C)C[C@@H]2OCCCC[C@H](C)Oc3ccc(NS(=O)(=O)c4ccc(F)cc4)cc3C(=O)N([C@H](C)CO)C[C@@H]2C)cc1`, the relative growth is inactive: 0.998.

On to `O=C(C[C@H]1C[C@H]2c3cc(NC(=O)Cc4ccncc4)ccc3O[C@H]2[C@@H](CO)O1)NCc1cccc(F)c1`, for which the relative growth is inactive: 1.04.

In the case of `CO[C@H]1CN(C)C(=O)c2ccc(NC(=O)Nc3ccccc3)cc2OC[C@@H](C)N(C(=O)CN(C)C)C[C@H]1C`, the relative growth is inactive: 0.982.

For `Cc1ccc(S(=O)(=O)N(C)C[C@@H]2OCCCC[C@@H](C)Oc3ccc(NS(=O)(=O)c4ccc(F)cc4)cc3C(=O)N([C@@H](C)CO)C[C@@H]2C)cc1`, the relative growth was inactive: 1.02.

For `C[C@H](CO)N1C[C@H](C)[C@H](CN(C)C(=O)Nc2cccc3ccccc23)Oc2ccc(NC(=O)Nc3ccccc3)cc2CC1=O`, the relative growth was inactive: 0.992.

Regarding `C[C@H](CO)N1C[C@H](C)[C@H](CN(C)C(=O)Nc2ccccc2)Oc2ccc(NC(=O)CCCCCC(=O)Nc3ccccc3N)cc2CC1=O`, the relative growth was inactive: 0.962.

Regarding `COc1ccc(CN(C)C[C@H]2OCCCC[C@H](C)Oc3ccc(NC(=O)Nc4ccccc4)cc3C(=O)N([C@H](C)CO)C[C@H]2C)cc1`, the relative growth was inactive: 0.99.

In the case of `O=C(c1cccs1)N1c2ccccc2Sc2ccccc21`, the relative growth was inactive: 1.02.

As to `C[C@@H]1CN([C@H](C)CO)C(=O)c2cc(NS(=O)(=O)c3ccc(F)cc3)ccc2O[C@@H](C)CCCCO[C@@H]1CN(C)Cc1ccc2c(c1)OCO2`, the relative growth is inactive: 0.995.

Consider `Cc1cn(-c2cc(NC(=O)c3ccc(C)c(Nc4nccc(-c5cnccn5)n4)c3)cc(C(F)(F)F)c2)cn1`, for which the relative growth is inactive: 0.96.

Turning to `Nc1ccc(S(=O)(=O)Nc2ccccn2)cc1`, the relative growth is inactive: 0.965.

Source of the values: the supplement of paper PMC9446081.
